# Test results as given in PubChem BioAssay AID488969 (Vanderbilt High Throughput Screening Facility, 2010).
# Whole data set: some 110,000 compounds, median “z-score” near -0.1, cut for the highest 2% near 2. This is one part of the list. Active and inactive are the calls of the source.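 How the source made its calls: active means z-score in the third read window above 3 or below -3; inactive means the rest.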
# Target: Metabotropic glutamate receptor 8 (Rattus norvegicus) (UniProt P70579)
# Assay: rat mGluR8 modulators via GIRK flux, primary screen, cell-based, thallium flux, HTS (AID 488969)
# Conditions: HEK293 rat mGluR8, GIRK (G protein-gated inwardly rectifying potassium channel) thallium flux, FluoZin2; at 10 µM; stronger effect = higher value; submaximal glutamate (EC20) added with thallium
# Chain of UniProt P70579 (P70579 whole entry, looked up): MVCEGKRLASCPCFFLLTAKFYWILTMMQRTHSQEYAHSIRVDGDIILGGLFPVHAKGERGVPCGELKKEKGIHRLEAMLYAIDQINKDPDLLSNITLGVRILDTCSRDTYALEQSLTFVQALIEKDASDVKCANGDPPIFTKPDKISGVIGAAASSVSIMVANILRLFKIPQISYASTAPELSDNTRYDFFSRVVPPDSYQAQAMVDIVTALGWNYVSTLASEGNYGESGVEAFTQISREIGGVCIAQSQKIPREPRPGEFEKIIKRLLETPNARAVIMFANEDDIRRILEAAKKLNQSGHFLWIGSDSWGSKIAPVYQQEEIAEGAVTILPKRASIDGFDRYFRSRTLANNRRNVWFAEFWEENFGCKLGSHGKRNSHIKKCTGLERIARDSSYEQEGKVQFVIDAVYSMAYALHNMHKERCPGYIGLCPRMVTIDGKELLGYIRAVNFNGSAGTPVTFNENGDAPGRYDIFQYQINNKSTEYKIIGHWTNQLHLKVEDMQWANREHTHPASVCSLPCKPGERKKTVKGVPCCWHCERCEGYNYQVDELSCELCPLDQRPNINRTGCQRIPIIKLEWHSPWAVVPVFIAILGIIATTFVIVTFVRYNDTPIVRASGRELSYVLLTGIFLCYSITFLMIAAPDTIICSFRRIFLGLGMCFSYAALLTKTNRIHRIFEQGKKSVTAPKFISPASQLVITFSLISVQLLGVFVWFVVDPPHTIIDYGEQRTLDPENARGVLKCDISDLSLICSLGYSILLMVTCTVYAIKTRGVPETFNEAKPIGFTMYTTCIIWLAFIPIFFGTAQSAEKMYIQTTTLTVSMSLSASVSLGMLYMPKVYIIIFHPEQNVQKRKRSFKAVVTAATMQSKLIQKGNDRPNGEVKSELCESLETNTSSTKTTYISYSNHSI
row,Structure (SMILES),z-score
1,CCOC(=O)C1=C(C)Nc2nnnn2C1c1ccc(OC)c(Br)c1 (stereo not drawn),-0.463
2,COc1ccc(S(=O)(=O)N2CCC(=O)N2)cc1,0.154
3,Cc1ccc2cc(CCNC(=O)CC(C)C)c(=O)[nH]c2c1,-1.9
4,C=CCn1c(SCc2nc3ccccc3[nH]2)nnc1-c1ccncc1,-0.336
5,Cc1ccc(CNC(=O)c2ccccc2CCc2ccccc2)cc1,-0.136
6,O=C(c1ccccc1)c1ccc(OCCCN2CCCC2)cc1,-0.0127
7,COC(=O)[C@@H](NC(=O)Nc1cccc(OC)c1)C(C)C,-0.0386
8,COC(=O)c1sccc1NC(=O)COc1ccc(Cl)cc1Cl,-0.26
9,Cc1ccc(S(=O)(=O)N/N=C2/CC(c3ccccc3)Oc3ccccc32)cc1 (stereo not drawn),-0.121
10,CC(C)(C)c1ccc(NC(=O)NCc2ccco2)cc1,-0.0767
11,CCCCNC(=S)N/N=C/c1cc(C)ccc1C,1.48
12,CCC(CC)C(=O)Nc1ccccc1NC(C)=O,0.239
13,Cc1cccc(-c2nc(CSCC(=O)NCCCN3CCOCC3)c(C)o2)c1,-0.0671
14,CCOCCCNC(=O)C(NC(=O)C1CCC(=O)N1)c1ccc(C)cc1 (stereo not drawn),-0.137
15,COc1ccc(Cl)cc1NC(=O)NC1CCCCC1,-0.411
16,Cc1cc(=O)n2[nH]c(-c3ccco3)nc2n1,-0.387
17,Cc1cc2ccccc2c(=O)n1CC(=O)NC1CCCCCC1,0.246
18,CCOC(=O)c1c(C)c(C(=O)Nc2ccc3c(c2)OCCO3)c(C)n1CC,-1.49
19,CC1CN=C(N(Cc2ccccc2)C(=O)Nc2ccccc2)S1 (stereo not drawn),-0.882
20,CC(=O)c1ccc(S(=O)(=O)N2CCCC2)cc1,0.379
21,COc1cc2c(cc1OC)C(c1ccccc1)N(C(=O)c1ccco1)CC2 (stereo not drawn),-1.99
22,Cc1nc2c(sc3nc4c(cc32)COC(C)(C)C4)c(=O)o1,0.53
23,O=C(O)c1cccc(OCc2ccccc2Cl)c1,0.74

row,Structure (SMILES),z-score
1,O=C(CCC1COc2ccccc2O1)Nc1ccc(Cl)cn1 (stereo not drawn),-0.27
2,CCOc1cc(NC(=S)NCC2CCCO2)c(OCC)cc1NC(=O)c1cccc(C)c1 (stereo not drawn),-0.0401
3,CCCOc1ccc(C(=O)NNC(=S)NC(=O)c2cc(-c3ccccc3)nc3ccccc23)cc1,0.558
4,Clc1ccccc1COc1ccccc1-c1nnco1,-1
5,CCN(CC)S(=O)(=O)c1ccc(Cl)c(NC(=O)c2ccccc2C)c1,-0.107
6,O=C(CSc1ccc(-c2ccccc2)nn1)N1CCOCC1,0.106
7,O=C(CSc1nnc(-c2cccs2)n1-c1ccccc1)NCc1ccc2c(c1)OCO2,-0.377
8,COc1ccc(-c2onc(C)c2-c2ccc(C(=O)OC(C)C)o2)c(O)c1,active: -4.3
9,COc1ccccc1N1CCN(CC(=O)NC(=O)NCc2ccco2)CC1,1.67
10,Cc1ccccc1Cn1ccc(NC(=O)c2cnn3cccnc23)n1,-1.02
11,CCc1ccc(-c2nc(CN3CCC(C(=O)NCCN(CC)c4ccccc4)CC3)c(C)o2)cc1,1.17
12,Cc1c(Cl)cccc1NC(=O)COC(=O)c1c2c(nc3ccccc13)CCN(Cc1ccccc1)C2,-1.03
13,COC(=O)[C@H](C)NC(=O)/C=C/c1ccc(OC)cc1,0.129
14,O=C1CC(N2CCN(c3ccccc3F)CC2)C(=O)N1c1ccc(F)cc1 (stereo not drawn),0.198
15,CCc1ccccc1S(=O)(=O)Cc1ccc(C(=O)N2CCN(c3ccccc3OC)CC2)o1,-0.462
16,O=C(NC(=S)NC1CCSC1=O)c1ccccc1Cl (stereo not drawn),0.0329
17,Nc1nc(CSC(=S)N2CCN(c3ccccc3)CC2)nc(Nc2ccccc2)n1,0.00399
18,O=C(O)c1cccnc1Cl,-0.204
19,O=C(CSc1ccccc1)Nc1nnc(/C=C/c2ccccc2)s1,-0.187
20,CC(=O)c1c[nH]c(C(=O)NCC2CCCO2)c1 (stereo not drawn),-0.362
21,CCCCCC(=O)N1CCN(CCN=CC2=C(O)CC(c3cccs3)CC2=O)CC1 (stereo not drawn),-0.103
22,Cc1cc(N)c(C)c([N+](=O)[O-])c1C,0.188
23,Cc1cccc(NC(=O)c2ccccc2C(=O)O)c1,-0.0763

row,Structure (SMILES),z-score
1,CCOc1cc(/C=N/NC(=O)COc2ccccc2C)ccc1OC(=O)c1cccs1,-0.207
2,COc1ccc(-c2n[nH]c(C)c2-c2cnn(-c3ccccc3)c2)c(O)c1C,-0.0489
3,Cn1cccc1/C=N/n1c(-c2ccc(Cl)cc2)n[nH]c1=S,1.03
4,CCCCn1c(SCC(N)=O)nc2c(sc3ccccc32)c1=O,active: 3.23
5,CCOC(=O)Nc1sc2c(c1C#N)CCC(C)C2 (stereo not drawn),-0.505
6,O=C(Nc1ccccc1-c1nc2ccccc2s1)c1cccnc1,-1.51
7,O=C(CCS(=O)(=O)c1ccc(Br)s1)NCc1ccccc1,-0.807
8,Cn1c(=O)[nH]c(=O)c2[nH]c(CN3CCN(C(=O)c4ccco4)CC3)nc21,0.0365
9,Cc1ccc(OCC(=O)Nc2ccc([N+](=O)[O-])cn2)cc1C,-0.203
10,CCOC(=O)COc1ccc2c3c(c(=O)oc2c1C)CCC3,-0.198
11,O=C(/C=C/Nc1ccccc1)c1ccccc1,0.219
12,COc1cccc(NC(=O)N2CCN(c3cccc(C)c3C)CC2)c1,-0.0248
13,COc1ccccc1N=Cc1nc(-c2ccccc2)oc1OC(C)=O,-2.34
14,Cc1cc(C(=O)NNC(=S)NCC(C)C)cs1,0.377
15,COc1ccc(C(C)=O)cc1COC(=O)CNC(=O)c1cc(C)cc(C)c1,0.033
16,COc1ccc(C2OC(=O)CC2C(=O)N2CCN(c3cc(Cl)ccc3C)CC2)cc1OC (stereo not drawn),-0.388
17,CC1N(O)C(C)(C)C(c2ccccc2)=[N+]1[O-] (stereo not drawn),-0.0396
18,CS(=O)(=O)NCCSCc1c(F)cccc1Cl,0.311
19,COc1ccc(C(=O)N2c3ccccc3C=CC2C#N)cc1 (stereo not drawn),-0.62
20,FC(F)(F)c1cccc(-c2nnc(-c3ccccc3)c(N3CCOCC3)n2)c1,0.255
21,COC(=O)C1=CN(CCCN2CCCC2=O)C=C(C(=O)OC)C1c1cccs1,-0.0492
22,CCn1cc(C(=O)OCC(=O)Nc2cccc(S(=O)(=O)N3CCOCC3)c2)c(=O)c2ccc(C)nc21,0.288
23,Cn1cnnc1SC1c2cccc3cccc(c23)C1NS(=O)(=O)c1ccccc1 (stereo not drawn),-0.0157

row,Structure (SMILES),z-score
1,COc1cc(CN(C(=S)NCC(=O)NC2CCCC2)C2CCCC2)cc(OC)c1OC,-0.312
2,Cc1ccccc1/C(N)=N/O,0.264
3,Cc1ccc(Nc2cc(C)nc(NCc3ccccc3)n2)cc1,-0.326
4,Oc1ccc(NCc2ccccc2OCc2ccccc2)cc1,-0.381
5,CC1CCN(S(=O)(=O)c2cc(C(=O)N3CCN(c4ncccn4)CC3)ccc2Br)CC1,-0.827
6,O=C(COC(=O)c1cc(S(=O)(=O)N2CCOCC2)ccc1O)NCC1CCCO1 (stereo not drawn),-0.227
7,Cn1cccc1/C=N/N1CCN(c2ccccn2)CC1,-0.18
8,CCc1c(C(=O)Nc2cc(C)cc(C)c2)[nH]c(C)c1C(C)=O,-0.0314
9,COc1ccc(-n2nnc3c(=O)n(CC(=O)NCC4CCCO4)cnc32)cc1 (stereo not drawn),-0.0531
10,Cc1nnc(SCC(=O)Nc2ccc3c4c(cccc24)CC3)n1C,0.0857
11,COc1ccc(NC(=O)c2ccc(Cc3ccc(C)cc3)o2)cc1,-1.25
12,CCCCN(C(=O)Cc1cccs1)c1nnc(-c2cccnc2)s1,1.24
13,COc1ccc(-c2cc(C3CCN(c4cc(Cl)nc(N)n4)CC3)[nH]n2)cc1,-0.176
14,CCN1CCc2c(OCC(=O)N3N=C(c4cccs4)CC3c3ccc(F)cc3)cccc2C1=O (stereo not drawn),-0.882
15,Cc1cnc(NC(=O)CSc2ncc(-c3ccccc3)n2Cc2ccco2)s1,0.413
16,O=C(NNC(=S)Nc1cccc(Cl)c1)c1ccccc1OC(F)F,1.37
17,CCOC(=O)C1=C(SCC)c2cc3c(n2C1=O)CCCC3,-1.93
18,CCCCN(C)C(=O)CSc1nc(NCc2ccc(OC)cc2)c2ccccc2n1,-1.19
19,CC(C)CCNC(=O)Cn1c2c(c(-c3ccccc3Cl)cc1=O)CCC2,-0.0568
20,CC(O)(CS(=O)(=O)Cc1ccccc1)C(=O)Nc1ccc(C(F)(F)F)cc1 (stereo not drawn),-0.407
21,CN(C)S(=O)(=O)N(CC(=O)Nc1ccccc1F)c1ccccc1,0.148
22,Cc1cc(C)c2oc(-c3ccc(C)c(NC(=S)NC(=O)/C=C/c4ccco4)c3)nc2c1,-0.0423
23,CCc1cc2c(=O)n(-c3ccc(Br)cc3)cnc2s1,0.212

row,Structure (SMILES),z-score
1,CN(C)/C=C/C(=O)c1cccc(Cl)c1,-0.138
2,CCCCCNC(=O)Cc1cc(=O)[nH]c(=O)[nH]1,0.717
3,CCOc1ccc(-c2cc(C(=O)N3CCN(c4ccccn4)CC3)c3ccccc3n2)cc1,-0.154
4,O=S(=O)(c1cccc(-c2nn3c(-c4ccncc4)nnc3s2)c1)N1CCOCC1,-0.408
5,O=c1cc(-c2ccccc2)nc(N2CCN(Cc3ccccc3)CC2)[nH]1,-0.524
6,Cc1cc(C(=O)c2ccccc2)nc2ccccc12,-0.16
7,Cc1cccc(C)c1NC(=O)CCCSc1nnc(-c2ccc(Cl)cc2)n1-c1ccccc1,-0.454
8,O=C(NCc1ccco1)C(c1ccccc1)N(C(=O)Cc1cccs1)c1ccccc1 (stereo not drawn),-0.0636
9,CN1C(=O)C(O)(CC(=O)c2cccc(-n3cccc3)c2)c2ccccc21 (stereo not drawn),-0.617
10,COc1cccc(NC(=O)COC(=O)/C=C/c2ccc(Cl)cc2Cl)c1,1.31
11,CC(/C=C/c1ccccc1)=N\Nc1nc(-c2ccccc2)cs1,-0.00883
12,COc1ccc(NC(=O)c2cc(-c3cccnc3)nc3ccc(C)cc23)cc1OC,-0.00287
13,O=C(/C=C/c1cccs1)Nc1cccnc1,0.00312
14,CC(C)c1ccc(NC(=O)C(c2ccccc2)N2CCC3(CC2)OCCO3)cc1 (stereo not drawn),-0.627
15,CC(=O)c1cccc(NC(=O)N2CCCC2C(=O)NCCc2ccccc2)c1 (stereo not drawn),1.26
16,C=CCn1c(SCC(=O)Nc2nc(C)cs2)nnc1C(NC(=O)c1ccccc1)C(C)C (stereo not drawn),-0.121
17,CCOc1ccc2sc(NS(=O)(=O)c3ccc(OC)c(OC)c3)nc2c1,-0.157
18,COc1cc(NS(=O)(=O)c2ccc(NC(=O)C3CCCO3)cc2)nc(OC)n1 (stereo not drawn),-0.159
19,Cc1cccc(C(=O)NC(NCCc2ccccc2)C(Cl)(Cl)Cl)c1 (stereo not drawn),-0.429
20,Cc1ccc(/C(O)=C2/C(=O)C(=O)N(Cc3ccco3)C2c2cccs2)cc1 (stereo not drawn),-1.56
21,CC(C)CCNC(=O)c1ccc(CSCc2cccc(F)c2)o1,active: -3.86
